Data as given in a compilation of properties of binary mixtures (doi:10.1021/jp071051m).
The densities may have been worked out from excess volumes.

Experiment: xn = mol fraction of the nth substance listed
Conditions: 298.15 K, 101 kPa

CCCC[n+]1ccn(C)c1.F[P-](F)(F)(F)(F)F + ClCCl
Conditions | mass density [kg/m3]
x2 = 0 | 1364

CCCC[n+]1ccn(C)c1.O=C([O-])C(F)(F)F + CC#N
Conditions | mass density [kg/m3]
x2 = 0 | 1212.8
x2 = 0.0798 | 1208
x2 = 0.1769 | 1197.8
x2 = 0.3539 | 1169.9
x2 = 0.4443 | 1150.8
x2 = 0.547 | 1123.3
x2 = 0.6553 | 1084.3
x2 = 0.7649 | 1027.7
x2 = 0.8457 | 970.5
x2 = 0.8802 | 939.8

CCCC[n+]1ccn(C)c1.O=C([O-])C(F)(F)F + ClC(Cl)Cl
Conditions | mass density [kg/m3]
x2 = 0 | 1212.8
x2 = 0.0918 | 1225.3
x2 = 0.1815 | 1238
x2 = 0.2793 | 1256.2
x2 = 0.3861 | 1276.5
x2 = 0.482 | 1297.4
x2 = 0.5804 | 1321.5
x2 = 0.6467 | 1340
x2 = 0.6812 | 1350
x2 = 0.729 | 1366.3
x2 = 0.7847 | 1384.7
x2 = 0.8677 | 1418.6

CCCC[n+]1ccn(C)c1.F[P-](F)(F)(F)(F)F + c1ccncc1
Conditions | mass density [kg/m3]
x2 = 0 | 1364
x2 = 0.0964 | 1350.8
x2 = 0.1929 | 1333
x2 = 0.291 | 1313.9
x2 = 0.3899 | 1291.5
x2 = 0.5922 | 1233.5
x2 = 0.6978 | 1193.9
x2 = 0.7695 | 1158.1
x2 = 0.8372 | 1118.1
x2 = 0.8781 | 1090

CCCC[n+]1ccn(C)c1.O=C([O-])C(F)(F)F + O
Conditions | mass density [kg/m3]
x2 = 0 | 1212.8
x2 = 0.1093 | 1216
x2 = 0.197 | 1215.5
x2 = 0.2888 | 1211.8
x2 = 0.396 | 1209.7
x2 = 0.4921 | 1206.7
x2 = 0.5897 | 1199
x2 = 0.6918 | 1186.9
x2 = 0.7927 | 1170.7
x2 = 0.884 | 1138.2
x2 = 0.9195 | 1107.1

CCCC[n+]1ccn(C)c1.F[P-](F)(F)(F)(F)F + CCOC(C)=O
Conditions | mass density [kg/m3]
x2 = 0 | 1364
x2 = 0.0883 | 1348.1
x2 = 0.1793 | 1330.3
x2 = 0.4691 | 1254.8
x2 = 0.5703 | 1217.4
x2 = 0.6738 | 1170.5
x2 = 0.8339 | 1067

ClCCl + CCCC[n+]1ccn(C)c1.F[P-](F)(F)(F)(F)F
Conditions | mass density [kg/m3]
x1 = 0.0753 | 1364
x1 = 0.163 | 1363.5
x1 = 0.3361 | 1362.2
x1 = 0.5384 | 1360.3
x1 = 0.6462 | 1358.3
x1 = 0.738 | 1354.7
x1 = 0.8242 | 1349.8
x1 = 0.8678 | 1344.8

CCCC[n+]1ccn(C)c1.F[P-](F)(F)(F)(F)F + CC(C)=O
Conditions | mass density [kg/m3]
x2 = 0 | 1364
x2 = 0.1006 | 1355
x2 = 0.1935 | 1333
x2 = 0.3033 | 1302.6
x2 = 0.3988 | 1271.9
x2 = 0.6016 | 1189.8
x2 = 0.6992 | 1125.5
x2 = 0.8433 | 1000.8
x2 = 0.8853 | 958
